Measurements reported in the supplement of paper PMC5499739.
Whole data set: some 16,000 sequences, median “Z-score” near -0.37, cut for the highest 2% near 3.1. This is one part of the list.

test system: RBM10 RRM1-ZnF-RRM2 (GST-tagged construct); experiment: RNAcompete 7-mer binding Z-score; higher = stronger binding preference
Experimental: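 RNAcompete: 20 pmol GST-tagged RBM10 RNA-binding constructs were incubated with a designed RNA pool of about 241,000 sequences up to 41 nt (1.5 nmol) on glutathione beads for 30 min at 4 °C and washed. Bound RNAs were identified by microarray hybridisation. Each RNA 7-mer is scored by a one-sided Z-score of its enrichment, computed over probes that contain the 7-mer within longer pool sequences.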

Sequence | RNAcompete 7-mer binding Z-score
UAUCUAU | -0.537
GUAGCAA | 0.603
GAUGUGU | 0.501
CGCUGCC | -0.621
CAAAUGA | -0.191
CACCACC | -0.475
CCCGUCC | -0.737
UUGAUCG | -0.307
UUCAUAA | -0.686
UGCUCAA | -0.639
UAUUGAU | -0.362
GGAUUCA | 0.727
AUUAACA | -0.304
UAACCAC | -0.457
AAGGCUC | 0.119
GUCUUUC | -0.592
UGUUUCC | -0.697
UAACUAC | -0.551
CCUUAAC | -0.861
UACAUAC | -0.333
CAGUUGA | 0.0167
AAACUCA | -0.639
GAAAUUC | -0.38
UCCCAUG | -0.377

Sequence | RNAcompete 7-mer binding Z-score
AGUUCUU | -0.719
GGGAAGU | 2.76
CAUACCA | -0.369
UCGUUCU | -0.595
CUCUACC | -0.912
UCUAGUA | -0.588
UGGCAGG | 1.88
UGACUCA | -0.453
UUUAGCC | -0.879
GAAUACA | -0.0561
UAUUCUG | -0.639
GCAAAAU | -0.0998
CGACUAC | -0.544
UCUUUGA | -0.719
CACGACA | -0.162
AGCGAUG | 1.05
GUAAGAU | 0.541
UCAAGCC | -0.854
CAGGUCG | 0.727
AGAUCAU | -0.541
GCAGUCC | -0.613
ACUCCAG | -0.548
GUUGAAA | 0.213
CACCGAU | -0.584

Sequence | RNAcompete 7-mer binding Z-score
UUGAGAG | 0.457
GUUCCUU | -0.661
GUUCUCU | -0.788
AAUAUAU | -0.275
UUGGCCC | -0.763
GGGGCAU | 2.49
UACCUAU | -0.555
CGUAGGG | 2.3
AUGGGGA | 4.23
AUCGGUC | -0.431
GGGUGCA | 3
UCGGAAU | 0.0641
UGCCCGU | -0.653
CCUACUU | -0.996
GGCGGCA | 1.12
CGGUGCA | 0.202
AGAUGGC | 0.596
AACAGAC | -0.0415
CAAAGUA | -0.0889
GGCAUAA | 0.29
GGCUAAA | 0.661
GCUUUGG | -0.242
UGCAGUA | 0.0058
UUGAUCU | -0.639

Sequence | RNAcompete 7-mer binding Z-score
GGUCCGU | 0.301
CGCCUAC | -0.817
GAUGUCC | -0.712
AGUGGCA | 1.68
GCUUGGA | -0.00148
GGUAAUA | 1.02
GAGUACA | 0.334
UAGAUCU | -0.602
GGCACUA | 0.224
UACAGUA | 0.137
GAUCCGA | -0.562
GCUUUUU | -0.861
GUUUGCG | -0.118
CUAGAAA | -0.479
CGUAUAC | -0.435
UCCAAUA | -0.307
ACCGCGU | -0.744
CCUAAAA | -0.785
UGCCCGG | -0.413
ACAAAGC | -0.413
GCUAAAG | 0.0349
AUUAUAC | -0.646
UAUUCUA | -0.795
AUAGGGU | 4.33

Sequence | RNAcompete 7-mer binding Z-score
CUGCUGG | -0.468
UAGUUUA | -0.34
UUUCAGC | -0.81
AAAUGGC | 1.42
GAAACCC | -0.653
CAUAUAC | -0.664
GAUAUGG | 3.32
GAAAAAA | 0.359
UCCUCGC | -0.825
GCAAUAA | 0.0349
UGGUGUU | 0.752
UCACCUC | -0.734
GCUCGUA | -0.395
CCUAACU | -0.766
CUUUGUU | -0.948
ACACAAA | -0.34
GGUGGCG | 2.88
AUGACUU | -0.836
AAGCGCA | -0.107
UGACUAC | -0.486
CGCCGUU | -0.683
